{
  "source": "PubChem BioAssay AID504832",
  "about": "(National Center for Advancing Translational Sciences (NCATS), 2011)",
  "note": "Out of some 310,000 compounds screened, about 18,000 (5.8%) were called active. This list was built around the results that the source calls inconclusive (neither active nor inactive); the mix of calls is not that of the screen. The call rests on the fitted dose curve; in most records, active means well fitted inhibition curve with a large enough effect; inconclusive means small, poorly fitted or top-dose-only effect, or another doubt; inactive means no such curve, though single readings can be large or run the other way. Potencies of inconclusive entries are left out as doubtful fits. On the % scale 0 is the no-effect control and ±100 the full control effect; potency means the concentration at half of the fitted maximal effect; tags describe the fitted curve by direction and shape.",
  "data": [
    {"test": "Primary qHTS for delayed death inhibitors of the malarial parasite plastid, 48 hour incubation", "conditions": "P. falciparum luciferase growth in erythrocytes; series mostly up to 28.7 µM; activity change, negative = inhibition: at the top concentration", "how_it_was_run": "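Read-out is firefly luciferase luminescence from an integrated reporter in P. falciparum, so falling signal marks reduced parasite growth. Infected erythrocytes were at 2% hematocrit and 0.1% parasitemia (final) in Albumax-supplemented RPMI 1640.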", "values": [
      {"smiles": "Cc1cc(C(=O)CSc2nc3ccccc3[nH]2)c(C)n1CC1CCCO1", "note": "(stereo not given)", "activity change, negative = inhibition": "inactive: 290%"},
      {"smiles": "COc1ccc(Oc2nc(-c3cccnc3)nc3ccccc23)cc1", "Potency": "inconclusive [inhibitor, single point]"},
      {"smiles": "O=C(NCc1ccccc1)c1ccc(NS(=O)(=O)c2cccs2)cc1", "activity change, negative = inhibition": "inactive: 1.36%"},
      {"smiles": "O=C(Nc1ccccc1)C1=C[C@@H](C2CCCCC2)C[C@@H](OCc2ccc(CO)cc2)O1", "Potency": "inconclusive [inhibitor, full curve, poor fit]"},
      {"smiles": "CCCn1c(N)c(NCCN2CCOCC2)c(=O)[nH]c1=O", "Potency": "inconclusive [inhibitor, partial curve, poor fit]"},
      {"smiles": "CCNc1nc(ON=C(C)C)nc(N(C)C)n1", "Potency": "active: 8.28 µM"},
      {"smiles": "O=C(NN=C1C2CC3CC(C2)CC1C3)c1ccncc1", "Potency": "inconclusive [inhibitor, single point]"},
      {"smiles": "COc1ccc(-c2ccc(SCC(=O)c3ccc(F)cc3)nn2)cc1OC", "Potency": "inconclusive [inhibitor, single point]"},
      {"smiles": "CCOc1ccc(NC(=O)CN2CCN(CC(=O)Nc3ccc(OC)cc3)CC2)cc1", "Potency": "inconclusive [inhibitor, partial curve, poor fit]"},
      {"smiles": "Cc1ccc(NC(=O)c2ccc(COc3ccc4c(c3)CCC4)cc2)c(C)c1", "activity change, negative = inhibition": "inactive: 2.16%"},
      {"smiles": "Cc1ccc2nc(N(CCCN(C)C)C(=O)CCc3ccccc3)sc2c1", "Potency": "inconclusive [inhibitor, single point]"},
      {"smiles": "CCCOC(=O)c1ccc(NS(=O)(=O)c2cccs2)cc1", "activity change, negative = inhibition": "inactive: 27.8%"},
      {"smiles": "CCn1c(=O)cc(OCC(=O)N2CCN(Cc3ccc4c(c3)OCO4)CC2)c2ccccc21", "Potency": "inconclusive [inhibitor, single point]"},
      {"smiles": "COc1cc(C(=O)O/N=C2\\C=CC(=O)C(C)=C2)cc(OC)c1OC", "Potency": "inconclusive [inhibitor, partial curve]"},
      {"smiles": "CCOC(=O)C1=C(NC(=O)c2ccc(Br)o2)Nc2ccccc2N=C1", "Potency": "active: 1.65 µM"},
      {"smiles": "C=CCNC(=O)c1sc(=S)n(-c2ccc(C(=O)OCC)cc2)c1N", "activity change, negative = inhibition": "inactive: 10.5%"},
      {"smiles": "CC(C)Oc1ccc(CN2CCC(n3nccc3NC(=O)c3cccnc3)CC2)cc1", "Potency": "inconclusive [inhibitor, partial curve, poor fit]"},
      {"smiles": "C/C(=N\\Nc1ccc(C(=O)O)cc1)c1ccc(Cl)s1", "activity change, negative = inhibition": "inactive: 148%"},
      {"smiles": "CC(C)C[C@@H](CO)N1CCN(C)CCC1=O", "activity change, negative = inhibition": "inactive: -16.6%"},
      {"smiles": "CCOC(=O)C1CCN(C(=O)CCn2c(=O)c3cccn3c3cccnc32)CC1", "Potency": "inconclusive [inhibitor, single point]"},
      {"smiles": "O=C(O)c1cccc(-c2noc(-c3ccccc3F)n2)c1", "Potency": "active: 0.301 µM"},
      {"smiles": "CC[C@H]1OC(=O)[C@H](C)[C@@H](O[C@H]2C[C@@](C)(OC)[C@@H](O)[C@H](C)O2)[C@H](C)[C@@H](O[C@@H]2O[C@H](C)C[C@H](N(C)C)[C@H]2O)[C@](C)(O)C[C@@H](C)C(=NOCOCCOC)[C@H](C)[C@@H](O)[C@]1(C)O", "activity change, negative = inhibition": "inactive: -9.07%"},
      {"smiles": "CCc1ccc(CNC(=O)C2CCCN(S(=O)(=O)N3CC(C)CC(C)C3)C2)cc1", "note": "(stereo not given)", "Potency": "inconclusive [inhibitor, partial curve]"},
      {"smiles": "O=C(CO/N=C/c1ccccc1)N1c2ccccc2Oc2ccccc21", "Potency": "active: 11.7 µM"},
      {"smiles": "COc1ccc(/C=N/NC(=O)c2cc(C34CC5CC(CC(C5)C3)C4)[nH]n2)cc1OC", "Potency": "inconclusive [inhibitor, single point]"},
      {"smiles": "CN1/C(=C\\C(=S)NC(=O)c2ccccc2Cl)C(C)(C)c2ccccc21", "Potency": "inconclusive [inhibitor, partial curve]"},
      {"smiles": "CCOc1cc(/C=N/Nc2cccc(C(=O)O)c2)ccc1OC(=O)c1ccccc1", "activity change, negative = inhibition": "inactive: 129%"},
      {"smiles": "CCc1ccc(NC(=O)[C@H](C)NC(=O)C2CCN(C(=O)[C@@H](N)C(C)C)CC2)cc1", "activity change, negative = inhibition": "inactive: -12.3%"},
      {"smiles": "COc1ccc(CNC(=O)COC(=O)C2CC2C)cc1OC", "note": "(stereo not given)", "Potency": "inconclusive [inhibitor, single point]"},
      {"smiles": "COc1cc(C(=O)NNC(=O)COc2cccc(F)c2)ccc1OCC(=O)N1CCOCC1", "activity change, negative = inhibition": "inactive: 11.7%"},
      {"smiles": "Cc1ccc(C)c(OCC(=O)Nc2ccccc2C(=O)N2CCOCC2)c1", "Potency": "inconclusive [inhibitor, partial curve]"},
      {"smiles": "CCCCCC(=O)NNC1=NCC(Cc2cccc(Cl)c2)S1", "note": "(stereo not given)", "Potency": "inconclusive [inhibitor, partial curve, poor fit]"},
      {"smiles": "Cc1cc2c(ccc3[nH]onc32)n1", "activity change, negative = inhibition": "inactive: 19.7%"},
      {"smiles": "COC(=O)C1CCN(C(=O)COC(=O)c2cc(-c3ccccc3)nc3ccc(OC)cc23)CC1", "Potency": "active: 13.1 µM"},
      {"smiles": "COC(=O)C1=C(C)N=C2SC(C)C(=O)N2C1/C=C/c1ccccc1OC", "note": "(stereo not given)", "Potency": "inconclusive [inhibitor, single point]"},
      {"smiles": "Cc1cccc(CSc2ccc(S(=O)(=O)N3CCCC3)cn2)c1", "Potency": "inconclusive [inhibitor, single point]"},
      {"smiles": "Cc1ccc(S(=O)(=O)N2CCN(C(=O)COC(=O)c3c(C)cc(C)cc3C)CC2)c(C)c1", "Potency": "active: 14.7 µM"},
      {"smiles": "CC(CNC1CCCCC1)OC(=O)c1ccccc1", "note": "(stereo not given)", "activity change, negative = inhibition": "inactive: 0.832%"},
      {"smiles": "CCOc1ccc2[nH]c(=O)c(CN(CCO)C(c3nnnn3C3CCCCC3)C(C)C)cc2c1", "note": "(stereo not given)", "Potency": "active: 3.29 µM"},
      {"smiles": "O=c1c2ccccc2nc(-c2ccc(Cl)cc2Cl)n1O", "Potency": "inconclusive [inhibitor, single point]"},
      {"smiles": "COC(=O)c1sc(S(=O)(=O)Nc2c(C)nn(C)c2C)c(C(=O)OC)c1C", "Potency": "inconclusive [inhibitor, single point]"},
      {"smiles": "O=C(Nc1ccnn1C1CCN(CCCc2ccccc2)CC1)c1cccc(F)c1", "Potency": "inconclusive [inhibitor, single point]"},
      {"smiles": "Nc1c2c(nc3ccccc13)N(C1CCCCC1)CC2", "Potency": "active: 13.1 µM"},
      {"smiles": "CCN(CC)C(=O)CSc1nnc(-c2ccc(S(=O)(=O)N3CCOCC3)cc2)n1C", "activity change, negative = inhibition": "inactive: -4.68%"},
      {"smiles": "CN(Cc1cccc(F)c1)C(=O)c1ccc(S(=O)(=O)N2CCOCC2)cc1", "Potency": "inconclusive [inhibitor, single point]"},
      {"smiles": "COc1cc2c(cc1OC)C(COc1ccc3c(C)cc(=O)oc3c1)N(C(=O)c1ccco1)CC2", "note": "(stereo not given)", "Potency": "inconclusive [inhibitor, full curve]"},
      {"smiles": "CNS(=O)(=O)c1cc(-c2nnc(Nc3ccc(NC(C)=O)cc3)c3ccccc23)ccc1C", "Potency": "active: 10.4 µM"},
      {"smiles": "O=C(c1cccs1)n1nc(NCc2ccccc2)nc1NCc1ccccc1", "Potency": "inconclusive [inhibitor, single point]"},
      {"smiles": "CN(C)C(=O)COc1ccc(S(=O)(=O)c2ccc(OCC(=O)N(C)C)cc2)cc1", "Potency": "inconclusive [inhibitor, full curve]"},
      {"smiles": "CN(Cc1nc2ccccc2c(=O)[nH]1)C(=O)c1cccc(S(=O)(=O)N2CCCCCC2)c1", "Potency": "inconclusive [inhibitor, single point]"},
      {"smiles": "S=C(NCCCN1CCOCC1)Nc1ccc(-c2nc3ccccc3[nH]2)cc1", "Potency": "inconclusive [inhibitor, full curve, poor fit]"},
      {"smiles": "COc1ccccc1Oc1c(C)oc2c(CN3CCOCC3)c(O)ccc2c1=O", "Potency": "inconclusive [inhibitor, partial curve]"},
      {"smiles": "O=C(CCN1C(=O)/C(=C\\c2ccccc2)SC1=S)N1CCOCC1", "Potency": "active: 11.7 µM"},
      {"smiles": "Cc1ccc(-c2nnc(N3CCN(c4ccccn4)CC3)c3ccccc23)cc1", "Potency": "active: 13.1 µM"},
      {"smiles": "O=C1c2ccccc2C(=O)N1/N=C/c1ccc(O)c(O)c1O", "Potency": "inconclusive [inhibitor, single point]"},
      {"smiles": "O=C(C1CCC(CNS(=O)(=O)c2ccccc2)CC1)N1CCCCC1", "note": "(stereo not given)", "activity change, negative = inhibition": "inactive: -19.8%"},
      {"smiles": "O=C1c2ccccc2CCc2ccc(Br)cc21", "activity change, negative = inhibition": "inactive: 66.5%"},
      {"smiles": "Cc1ccc(-c2nnc(NCc3nc4ccccc4[nH]3)c3ccccc23)cc1S(=O)(=O)N1CCOCC1", "Potency": "active: 11.7 µM"},
      {"smiles": "COc1cc(/C=C2\\SC(=S)N(N(C)c3ccccc3)C2=O)ccc1O", "Potency": "inconclusive [inhibitor, single point]"},
      {"smiles": "CC(OC(=O)CN1C(=O)COc2ccccc21)C(=O)NCc1ccc(F)cc1", "note": "(stereo not given)", "activity change, negative = inhibition": "inactive: -14.5%"},
      {"smiles": "Cc1ccc(Sc2ncnc(N)c2[N+](=O)[O-])cc1", "Potency": "inconclusive [inhibitor, partial curve]"},
      {"smiles": "Cc1ccc(NC(=S)NCCc2ccccc2)c(C)c1", "Potency": "inconclusive [inhibitor, single point]"},
      {"smiles": "CC(C)C[C@H](NC(=O)c1nc[nH]c1C(=O)NCCCCCNC(=O)OC(C)(C)C)C(=O)OCc1ccccc1", "Potency": "inconclusive [inhibitor, partial curve, poor fit]"},
      {"smiles": "CC(=O)Nc1cccc(NC(=O)CCNC(=O)c2ccc(Cl)cc2)c1", "Potency": "inconclusive [inhibitor, partial curve, poor fit]"},
      {"smiles": "CC(=O)/C(=N\\Nc1ccccc1Cl)Sc1nnc(-c2ccccc2)n1-c1ccccc1", "Potency": "inconclusive [inhibitor, partial curve, poor fit]"},
      {"smiles": "COc1ccc(/C=C/C(=O)Nc2ccc(OC)nc2)cc1", "Potency": "inconclusive [inhibitor, partial curve, poor fit]"},
      {"smiles": "CCCNC(=O)c1ccc2nc(-c3ccccc3)c(-c3ccccc3)nc2c1", "Potency": "active: 5.22 µM"},
      {"smiles": "O=C(O)c1cn(-c2ccccc2)nc1-c1ccncc1", "activity change, negative = inhibition": "inactive: -3.59%"},
      {"smiles": "CCOC(=O)/C(=C/C1=CC(=C/N(C)C)/C(=O)O1)C(C)=O", "activity change, negative = inhibition": "inactive: 55.9%"},
      {"smiles": "NNCc1cccc(O)c1", "Potency": "inconclusive [inhibitor, single point]"}
    ]}
  ]
}
